Out of some 39,000 compounds screened, about 220 (0.56%) showed activity. The list shows a part of the results.
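Note: static incubation at 37 °C against the wild-type strain, values averaged over two biological replicates.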

This assay concerns Escherichia coli K-12 BW25113. Description: relative growth (OD600 normalised to plate interquartile mean) (fraction); higher = less growth inhibition, active = 0.2 or less. As to conditions: 50 µM; LB; incubation time: overnight (16-24 h).
In the case of `C=CCOC(=O)[C@H]1[C@@H]2C(=O)O[C@@H](c3ccccc3)[C@@H](c3ccccc3)N2[C@@H](c2ccc(OCCOC(=O)[C@H]3C[C@H]4C(=O)N5CCC[C@H]5C(=O)N4[C@H]3c3cccc(OCCO)c3)cc2)[C@]12C(=O)Nc1ccc(I)cc12`, the relative growth was inactive: 1.01.
Turning to `C[C@H](CO)N1C[C@H](C)[C@@H](CN(C)S(C)(=O)=O)Oc2ncc(C#CC3(O)CCCC3)cc2C1=O`, the relative growth is inactive: 1.
Turning to `C[C@@H]1CN([C@@H](C)CO)C(=O)c2c(c3ccccc3n2C)-c2ccccc2CO[C@@H]1CN(C)C(=O)Nc1cccc(C(F)(F)F)c1`, the relative growth was inactive: 1.03.
Turning to `O=C(C[C@H]1C=C[C@H](NC(=O)Cc2ccccn2)[C@H](CO)O1)NCCCN1CCOCC1`, the relative growth is inactive: 0.998.
In the case of `O=C(C[C@@H]1C[C@@H]2c3cc(NS(=O)(=O)c4ccccc4)ccc3O[C@@H]2[C@H](CO)O1)NCC(F)(F)F` it was inactive: 0.976; in that of `CC(C)(C)NCC(O)c1ccc(O)c(CO)c1` (stereo unspecified), inactive: 0.903; in that of `Cl.N=C(NN=Cc1ccc(Cl)cc1)NN=Cc1ccc(Cl)cc1`, inactive: 0.609.
In the case of `C[C@H]1CN([C@@H](C)CO)C(=O)c2cc(NC(=O)CCCCCC(=O)Nc3ccccc3N)ccc2O[C@@H]1CN(C)C(=O)Nc1ccc(F)cc1` it was inactive: 0.965; in that of `C[C@@H]1CN([C@H](C)CO)C(=O)c2cccc(NC(=O)Nc3ccc(C(F)(F)F)cc3)c2O[C@@H]1CN(C)C(=O)NC1CCCCC1`, inactive: 0.886.
In the case of `CC(C)C#Cc1ccc2c(c1)O[C@@H](CN(C)S(=O)(=O)c1cn(C)cn1)[C@H](C)CN([C@H](C)CO)S2(=O)=O` it was inactive: 1.01; in that of `CN(C)CCN1CCNCC1`, inactive: 0.961.
With `C[C@@H]1CN([C@@H](C)CO)C(=O)c2cc(NS(=O)(=O)c3ccc(Cl)cc3)ccc2O[C@@H](C)CCCCO[C@@H]1CN(C)C(=O)Cc1ccccc1`, the relative growth is inactive: 1.01.
In the case of `C[C@H]1CCCCO[C@H](CN(C)Cc2ccc3c(c2)OCO3)[C@@H](C)CN([C@@H](C)CO)C(=O)c2cc(NC(=O)Cc3ccccc3)ccc2O1` it was inactive: 0.98.
In the case of `COc1ccc(NC(=O)N(C)C[C@@H]2Oc3c(NC(=O)Nc4ccc(C(F)(F)F)cc4)cccc3C(=O)N([C@@H](C)CO)C[C@@H]2C)cc1` it was inactive: 0.883; in that of `Cn1nnc2cc(C(=O)NC3CC3)ccc21`, inactive: 1.01.
Turning to `CO[C@@H]1CN(C)C(=O)c2cc(NC(=O)Nc3cccc(F)c3)ccc2OC[C@H](C)N(C(=O)Nc2c(C)noc2C)C[C@H]1C`, the relative growth was inactive: 1.
On to `C[C@@H]1CN([C@@H](C)CO)C(=O)Cc2cc(NS(=O)(=O)c3ccc(F)cc3)ccc2O[C@H]1CN(C)CC1CC1`, for which the relative growth is inactive: 1.01.
In the case of `C[C@H](CO)N1C[C@H](C)[C@H](CN(C)Cc2ccc(C(=O)Nc3ccccc3N)cc2)Oc2ccc(NC(=O)Nc3cccc4ccccc34)cc2CC1=O` it was inactive: 1.02; in that of `C[C@H](CO)N1C[C@H](C)[C@H](CN(C)CC2CCCCC2)Oc2ccc(NC(=O)CCN3CCOCC3)cc2CC1=O`, inactive: 0.995.
In the case of `Cc1noc(C)c1NC(=O)N1C[C@H](O)COC[C@@H]2O[C@H](CC(=O)N[C@H]3CCN(Cc4ccccc4)C3)CC[C@H]21` it was inactive: 1.01.
With `C[C@@H](CO)N1C(=O)[C@@H]2[C@H]3C(=O)OCC=C[C@H]3O[C@]23C=CCN(C(C)(C)C)C(=O)[C@@H]13`, the relative growth was inactive: 1.04.
In the case of `C[C@H]1CCCCO[C@H](CN(C)S(=O)(=O)c2ccc(Cl)cc2)[C@@H](C)CN([C@@H](C)CO)C(=O)c2cc(NC(=O)Nc3ccc4c(c3)OCO4)ccc2O1` it was inactive: 1.06; in that of `CN(C)CC#Cc1ccc([C@@H]2[C@@H](CO)N3C(=O)CN(C(=O)c4cccnc4)C[C@H]23)cc1`, inactive: 0.984.
As to `C[C@H](O)C#Cc1ccc2c(c1)O[C@H](CN(C)C(=O)c1ccncc1)[C@@H](C)CN([C@@H](C)CO)S2(=O)=O`, the relative growth was inactive: 1.
In the case of `C[C@@H]1CN([C@@H](C)CO)C(=O)c2cc(NC(=O)Nc3ccccc3)ccc2O[C@@H](C)CCCCO[C@H]1CN(C)S(=O)(=O)c1ccc(C(F)(F)F)cc1` it was inactive: 1.01; in that of `COc1ccc(NC(=O)N(C)C[C@@H]2Oc3c(NC(=O)C4CCOCC4)cccc3C(=O)N([C@H](C)CO)C[C@@H]2C)cc1`, inactive: 0.983.
In the case of `CCCCCC=CCC=CCC=CCC=CCCCC(=O)O` it was inactive: 0.966.
In the case of `C[C@@H]1CCCCO[C@H](CN(C)C(=O)c2ccccc2)[C@@H](C)CN([C@@H](C)CO)C(=O)c2cc(NC(=O)Nc3cccc4ccccc34)ccc2O1` it was inactive: 1.04.
Take `C[C@H](CO)N1C[C@H](C)[C@H](CN(C)Cc2ccc(-c3ccccc3)cc2)Oc2ccc(NC(=O)Cc3cn(C)c4ccccc34)cc2C1=O`: the relative growth is inactive: 1.01.
Consider `COCC(=O)Nc1ccc2c(c1)C(=O)N(C)[C@H]1CC[C@H](CC(=O)NCc3ccccc3Cl)O[C@@H]1CO2`, for which the relative growth is inactive: 0.997.
On to `C[C@H]1CN([C@@H](C)CO)C(=O)Cc2cc(NC(=O)Nc3ccccc3)ccc2O[C@H]1CN(C)S(C)(=O)=O`, for which the relative growth was inactive: 1.01.
For the compound `CC(C)C[C@H]1NC(=O)N(C)C1=O`, the relative growth was inactive: 1.
In the case of `C[C@H](CO)N1C[C@H](C)[C@@H](CN(C)Cc2ccc(C(F)(F)F)cc2)OCCCC[C@H](C)Oc2ccc(NC(=O)CCCN(C)C)cc2C1=O` it was inactive: 0.937; in that of `C[C@@H]1CN([C@H](C)CO)C(=O)c2cccc(NS(=O)(=O)c3cccs3)c2O[C@H]1CN(C)Cc1ccc(Oc2ccccc2)cc1`, inactive: 1.03.
With `C[C@H]1CN([C@@H](C)CO)C(=O)CCCn2nncc2CO[C@H]1CN(C)C(=O)Nc1ccc(N2CCCCC2)cc1`, the relative growth is inactive: 1.02.
In the case of `CCCCCCCC/C=C\CCCCCCCC(=O)O` it was inactive: 0.899.
In the case of `C[C@H]1CCCCO[C@H](CN(C)Cc2ccc(Cl)c(Cl)c2)[C@@H](C)CN([C@@H](C)CO)C(=O)c2cc(NC(=O)Cc3ccccc3)ccc2O1` it was inactive: 0.987; in that of `COc1ccc(S(=O)(=O)Nc2cccc3c2O[C@H](CN(C)S(=O)(=O)c2ccc(C)cc2)[C@H](C)CN([C@@H](C)CO)C3=O)cc1`, inactive: 1.03.
In the case of `Oc1cc(O)c2c(c1)O[C@H](c1ccc(O)c(O)c1)[C@H](O)[C@H]2c1c(O)cc(O)c2c1O[C@H](c1ccc(O)c(O)c1)[C@@H](O)C2` it was inactive: 0.957.
On to `C[C@H]1CN([C@@H](C)CO)C(=O)c2cccc(NS(=O)(=O)c3ccccc3)c2O[C@@H]1CN(C)S(=O)(=O)c1ccc(F)cc1`, for which the relative growth is inactive: 1.01.
`Cc1ccc(S(=O)(=O)N(C)C[C@H]2Oc3cc(C#Cc4ccncc4)ccc3S(=O)(=O)N([C@@H](C)CO)C[C@@H]2C)cc1`: the relative growth is inactive: 1.05.
Consider `O=C(O)c1cc(=O)cc[nH]1`, for which the relative growth is inactive: 1.01.
`COc1ccc(cc1)S(=O)(=O)N1C[C@]2(C1)CN([C@@H](CO)c1c2c2ccc(cc2n1C)OC)C(=O)CN(C)C`: the relative growth was inactive: 0.921.
In the case of `C[C@H](CO)N1C[C@H](C)[C@H](CN(C)Cc2ccc(Cl)c(Cl)c2)Oc2ccc(NC(=O)Nc3ccc(C(F)(F)F)cc3)cc2CC1=O` it was inactive: 1; in that of `C[C@H](CO)N1C[C@H](C)[C@H](CN(C)Cc2ccc(-c3ccccc3)cc2)Oc2c(NC(=O)Nc3ccc4c(c3)OCO4)cccc2C1=O`, inactive: 1.01.
In the case of `C[C@H]1CN([C@@H](C)CO)C(=O)c2cccc(NS(=O)(=O)c3cccs3)c2O[C@@H]1CN(C)S(=O)(=O)c1ccccc1` it was inactive: 0.982; in that of `C[C@@H]1CN([C@@H](C)CO)C(=O)c2cc(NC(=O)c3ccncc3)ccc2O[C@@H]1CN(C)S(=O)(=O)c1ccc(F)cc1`, inactive: 1.03.
On to `C[C@@H]1CN([C@H](C)CO)C(=O)Cc2cc(NC(=O)Nc3cccc4ccccc34)ccc2O[C@@H]1CN(C)Cc1ccccc1`, for which the relative growth is inactive: 1.02.
As for `COC[C@H]1CN(C(=O)CS(C)(=O)=O)Cc2nnn(CC3CC3)c21`, the relative growth is inactive: 0.996.
For `CN(C)CCC=C1c2ccccc2COc2ccc(CC(=O)O)cc21.Cl`, the relative growth was active: 0.0442.
In the case of `COc1ccc(CN(C)C[C@@H]2OCCCC[C@@H](C)Oc3ccc(NC(=O)CCCCCC(=O)Nc4ccccc4N)cc3C(=O)N([C@H](C)CO)C[C@@H]2C)cc1` it was inactive: 0.986; in that of `CN(C)C(=O)c1ccc(CO)cc1`, inactive: 0.983; in that of `O=C(C[C@@H]1CC[C@H]2[C@@H](COC[C@@H](O)CN2S(=O)(=O)c2cccc(F)c2)O1)NCc1ccncn1`, inactive: 0.994.
Regarding `Cc1ccc(S[C@]2(C(=O)NC(C)C)CC(=O)N(Cc3cc(C(F)(F)F)cc(C(F)(F)F)c3)[C@@H]2c2ccc(CO)cc2)cc1`, the relative growth is inactive: 1.
In the case of `C[C@@H](O)C(=O)O.N` it was inactive: 1; in that of `Cc1cc(C)n(C(=O)Cn2cc([N+](=O)[O-])cn2)n1`, inactive: 0.942.
In the case of `Cc1noc(C)c1S(=O)(=O)Nc1ccc2c(c1)CC(=O)N([C@@H](C)CO)C[C@H](C)[C@H](CN(C)S(=O)(=O)c1cn(C)cn1)O2` it was inactive: 1.01; in that of `C[C@H](CO)N1C[C@H](C)[C@@H](CN(C)S(=O)(=O)c2ccc(Cl)cc2)Oc2ccc(NC(=O)Nc3cccc4ccccc34)cc2CC1=O`, inactive: 1.03; in that of `CN1CCN(C(=O)C[C@@H]2CC[C@H]3[C@@H](COC[C@H](O)CN3CC3CCCC3)O2)CC1`, inactive: 0.999.
As to `C[C@@H]1CN([C@@H](C)CO)C(=O)Cc2cc(NC(=O)CCCCCC(=O)Nc3ccccc3N)ccc2O[C@@H]1CN(C)CC1CCCCC1`, the relative growth is inactive: 0.996.
As for `C[C@H]1CN([C@@H](C)CO)C(=O)c2cccc(NC(=O)Nc3ccc(C(F)(F)F)cc3)c2O[C@H]1CN(C)Cc1ccc(C(=O)Nc2ccccc2N)cc1`, the relative growth was inactive: 1.05.

These data come from the supplement of paper PMC9446081.
